The list shows a part of the results. At the low end of the ranking the order means little.
Each sequence was assayed against SIX1-Q177R homeodomain (UniProt Q15475) (assay: universal protein binding microarray). Details: Universal all-10-mer PBM (8x60K, AMADID 030236), 300 nM GST-tagged protein, Alexa Fluor 488 anti-GST; buffer, salt, pH and temperature not stated; high values mean tight binding; most listed sequences are background and not binding sites; double strand, one strand shown.

Row | Sequence | binding signal [E-score]
1 | AAGGATCA | 0.0617
2 | GGTGATCA | 0.144
3 | AGGTACTC | 0.166
4 | GCTTCGAC | -0.16
5 | GCTGGTCA | -0.136
6 | CCATTCTC | -0.147
7 | CGATGATC | -0.0224
8 | AAAATCTC | -0.149
9 | CACGCCCA | 0.338
10 | ACGCCCCG | 0.115
11 | CGCCCCAG | -0.0406
12 | CCCTCAAA | 0.00766
13 | ACGCTCAT | -0.184
14 | CTCGAAGA | -0.0688
15 | CCTGTACC | 0.09
16 | CCCGCACA | 0.228
17 | GCCATCCA | -0.0393
18 | CCGAGGTC | 0.105
19 | CTGCCTTA | -0.0855
20 | ACACGTGT | 0.455
21 | ATATATCA | -0.112
22 | CTCGTTTA | 0.00825
23 | CGTTGCAA | -0.167
24 | CAGGAGCA | -0.113
25 | ACCCGTTC | 0.0521

Row | Sequence | binding signal [E-score]
26 | GGCACACC | 0.351
27 | AAATGGCG | -0.156
28 | CGTGGTAA | 0.129
29 | AACCCCAT | 0.169
30 | ACGCGGGC | 0.164
31 | ATATCATA | -0.143
32 | GGCCAGAC | 0.00856
33 | CAATAGAA | -0.16
34 | GAGCTCTA | -0.0617
35 | ACTTCTAT | -0.0707
36 | GCTTGTTA | -0.203
37 | AGCCTTAC | -0.178
38 | CTCATACC | -0.071
39 | AGTAGCAG | -0.041
40 | AACAAGAC | -0.0263
41 | GATCAAAA | -0.164
42 | AGCGGGGC | -0.0416
43 | GGGGACGA | 0.042
44 | CATTCGTA | -0.0121
45 | CACAGATG | -0.147
46 | GTGCGGCA | -0.12
47 | CTTACGAA | -0.0914
48 | ATTCTTAC | -0.111
49 | CGCAACCC | -0.00212
50 | ATATCAAA | -0.114

Row | Sequence | binding signal [E-score]
51 | CCAGGGGA | -0.00112
52 | TCTCACCA | 0.016
53 | AATAATCA | -0.165
54 | GGTAGGAC | 0.0696
55 | GATCGAAA | -0.16
56 | AACATGAC | -0.0993
57 | AGTATCGC | 0.136
58 | CTCTCCAA | 0.0708
59 | AAGCAAGA | -0.209
60 | AATGAGTC | -0.0332
61 | AGCTCCTG | -0.123
62 | AACCGCGA | 0.0519
63 | ACACGGAG | 0.369
64 | ATGAACGC | 0.0186
65 | AATGTCAG | -0.0957
66 | TTAGGAAA | -0.022
67 | ATGGCCAC | -0.0651
68 | AGAGATTC | -0.159
69 | AACTCATT | -0.28
70 | CCTCCGCG | -0.0512
71 | AGTACTAA | -0.0288
72 | ACGGTGCC | 0.146
73 | CATTCCTC | -0.158
74 | CCAAGGCC | -0.271
75 | GCTCATCC | -0.0262

Row | Sequence | binding signal [E-score]
76 | GATCTCAA | -0.0857
77 | AAACGTTT | -0.22
78 | ATTCTAAG | 0.0189
79 | AATCGTTC | -0.106
80 | AACTTCAG | -0.122
81 | AACAATAG | -0.258
82 | ACAAAACA | 0.163
83 | ATGTCAGA | -0.234
84 | AAACTCCA | -0.0652
85 | AACAGTTG | -0.253
86 | TAGCAAAA | -0.0243
87 | CAACTGGA | -0.15
88 | AACGTCGG | -0.0753
89 | CGACCGCG | -0.107
90 | GAACAGAC | 0.0197
91 | ATAAGCAG | 0.0346
92 | TCGTAAGA | -0.154
93 | GCGAGCGA | 0.0583
94 | CTAGTATA | -0.149
95 | AACTGAGG | -0.152
96 | CAAGACCG | 0.054
97 | ATTAGAAG | -0.232
98 | ATTGACCG | 0.0881
99 | TGCCTCCA | -0.214
100 | AATCCGAT | 0.0226

Row | Sequence | binding signal [E-score]
101 | GTCCGCAA | -0.178
102 | AACGGGGG | 0.141
103 | AAAAACGT | -0.135
104 | CAATCCGC | -0.124
105 | ATCCTGAG | -0.157
106 | AACGGTGA | 0.0131
107 | GCTCAGAC | -0.0953
108 | GGTAGACC | 0.00877
109 | TAAGTTCA | -0.191
110 | CAAGGCGC | 0.0274
111 | GGCTGGTA | 0.0328
112 | GGGTAACC | 0.196
113 | CACCCCAC | 0.355
114 | GGTCAAGA | 0.132
115 | CCCTCCGG | 0.262
116 | CACCGCCC | 0.3
117 | CTAGATGA | -0.211
118 | CCTCTTCA | 0.0346
119 | GTCACCTA | 0.0879
120 | CAGACGCC | -0.0458
121 | ATCCTGCA | 0.119
122 | AGGGATTC | 0.0314
123 | ACTAGTTC | 0.0611
124 | TCCAATAA | -0.132
125 | AGTAACTG | -0.0538

Row | Sequence | binding signal [E-score]
126 | CTATATGA | -0.103
127 | AGCGGTCA | -0.0596
128 | CCTTGCCC | 0.0837
129 | ACGGGTCC | 0.00801
130 | CAATCTAC | -0.124
131 | TAGCCTGA | 0.064
132 | GAAAATTA | 0.0143
133 | AAAACGAC | -0.169
134 | ACATCGTA | -0.0605
135 | GTGCGTTA | -0.0945
136 | AAAGTAAT | -0.0944
137 | GAACAAAA | -0.191
138 | GCGGTATA | 0.0434
139 | ACCGAGAC | 0.0346
140 | GTTCTGTA | -0.0722
141 | CAGGGCAC | 0.0382
142 | AAGGAGAG | -0.0665
143 | ATCATACC | 0.121
144 | AGGCCGTA | 0.122
145 | AATTGGAC | -0.0689
146 | CCTAAGAC | 0.0688
147 | CGGACACA | 0.226
148 | ATTCGCCC | -0.182
149 | GAGATAGA | -0.157
150 | CGGGGACG | 0.039

Row | Sequence | binding signal [E-score]
151 | AAAATCGA | -0.086
152 | AGCTTGGC | -0.251
153 | CAGCCGCC | -0.0735
154 | CACCTCCC | 0.256
155 | ATTGTACG | -0.195
156 | GGGAATAA | -0.0428
157 | AAACAGTG | 0.0515
158 | AGACTCAG | -0.264
159 | AACAGATG | -0.28
160 | CGGGTGAA | 0.11
161 | ATCAGTGA | -0.0593
162 | ATAATTAT | -0.174
163 | CGATAGCA | -0.0623
164 | GAGCGAAC | -0.0926
165 | CCAAGCGG | 0.162
166 | ATAATTCC | -0.206
167 | CAGTAGGG | 0.12
168 | GCATTCAC | -0.0956
169 | CTTGCTCA | -0.149
170 | GAGAGCTA | -0.122
171 | AATTATTA | -0.141
172 | GTACGTGA | -0.087
